Test results published in the RNAGym collection of RNA variant scans (doi:10.1093/nar/gkz1192).
Read counts are not given, so values of variants with three or more changes are uncertain.

B1: CPEB3 Ribozyme (parent)
chain: UAACAGGGGGCCACAGCAGAAGCGUUCACGUCGCAGCCCCUGUCAGAUUCUGGUGAAUCUGCGAAUUCUGCUGUAUAUCUC

Variants of: B1
Test: self-cleavage, relative activity (ratio to wild type); higher = more cleavage; in vitro, sequencing
Summary of the method: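 After error-prone PCR and barcoding, CPEB3 ribozyme mutant libraries were transcribed with T7 RNA polymerase at 37°C for 5 hours, then given 15 min with DNase I before an EDTA stop, and they cleaved during both steps. Reverse transcription with template switching preceded Illumina sequencing. Relative activity divides a variant's cleaved/total read fraction by the unmutated ribozyme's. At least 5 reads were required per variant, and three batches were averaged.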

Variant	self-cleavage
A5U G19U G30A U51A U58C A64U	0
A5U G22A U31G U41G	0.12
A5U G22U A28G A35C A45G A56G C79U	0.28
A5U G24A U25C A45G U49C	0.07
A5U G24U U49A A64G	0.46
A5U G30A C32U U49C U60C	0.22
A5U G30A U41A U67A U76C	0.11
A5U G30A U41C A56G	0.21
A5U G30A U41C U60A U69C	0.13
A5U G30U U31C U80C	0.16
A5U G33A C50U U72C U78C	0.08
A5U G33A U49C U54C	0.03
A5U G33A U78C	0.4
A5U G33C U49C U54C	0.25
A5U G33C U51A	0.23
A5U G33C U51C A56G U58C A64U	0.26
A5U G33U C38G U67C U78C	0.14
A5U G33U U43C A65U	0.08
A5U G36C U41C A45G	0.12
A5U G53C A64U	0.35
A5U G73A A75G	1.41

Variant	self-cleavage
A5U U25A G30A	0.27
A5U U25A U26A U80C	0.63
A5U U25A U41G U54A	0.14
A5U U25C A35G A77U	0.15
A5U U25C A35G U41A	0.45
A5U U25C A45G U67C	0.12
A5U U25C A56U U58C U69A U72A U80A	0.08
A5U U25C A56U U76C	0.12
A5U U25C A57U	0.36
A5U U25C A64G	0.13
A5U U25C C37A U49C G63U U78C	0.11
A5U U25C C38U	0.18
A5U U25C C38U U66C	0.19
A5U U25C C39A U41G U51C U66C	0.06
A5U U25C U26A C40U	0.12
A5U U25C U41A	0.4
A5U U25C U41A G63C	0.36
A5U U25C U41A U43A	0.41
A5U U25C U41C U66C U72C U74A	0.19
A5U U25C U43C U80C	0.45
A5U U25C U49A A65G	0.09

Variant	self-cleavage
A5U U25C U67C U72C	0.26
A5U U25C U72A U80C	0.56
A5U U25G C38U U54C U60C	0.21
A5U U25G U69A	0.21
A5U U26A A28C U72A A77G	0.63
A5U U26A A28G A45G U66C	0.24
A5U U26A A35G A47U U49C U69C	0.25
A5U U26A A35G U49C U54A	0.84
A5U U26A A35U A56U	0.09
A5U U26A A35U U41A U60C A75U U78C	0.1
A5U U26A A35U U80A	0.63
A5U U26A A56G C62G G70U U74C C81U	0.29
A5U U26A U31C G46U	0.53
A5U U26A U51C	1.02
A5U U26A U78C	1
A5U U26C A35G A45G	0.85
A5U U26C A45G A47G A77U	0.23
A5U U26C A47G U69A U80C	0.44
A5U U26C A56U A57G	0.34
A5U U26C A64G	0.34
A5U U26C A77C	0.46

Variant	self-cleavage
A5U U26C C32U A35U G55A U80C	0.12
A5U U26C C50A G53U A75G	0.2
A5U U26C G30U U31A U41C	0.15
A5U U26C G33U A64G	0.25
A5U U26C G70U	0.28
A5U U26C U31C U41C	0.33
A5U U26C U31C U48C	0.3
A5U U26C U43A	0.34
A5U U26C U49A	0.62
A5U U26C U60C U69A	0.21
A5U U26C U69C U80C	0.34
A5U U26C U80C	0.67
A5U U26G A57G	0.29
A5U U26G C39U A56G C59U U60A	0.11
A5U U31A A47G U72A U78C	0.6
A5U U31A C32A U49A	0.27
A5U U31A U41G A75G	0.57
A5U U31A U58A	0.26
A5U U31A U58C U60C	0.12
A5U U31C A35G U51G A57G A65G U78C	0.74
A5U U31C A45G A56G	0.3
